# From the supplement of paper PMC3334620
# In all, about 33,000 sequences were measured (“E-score (-0.5 to 0.5)”: median about -0.016, highest 2% from about 0.31 on). The list shows a part of the results.
# Molecular target: Cst6 (UniProt P40535)
# Experiment: PBM E-score (8-mer binding enrichment) (E-score (-0.5 to 0.5)); higher = stronger / more preferred TF binding; most listed sequences are background and not binding sites
# Conditions: protein concentration: 200 nM; construct: GST-DNA-binding domain
# Procedure, shortened: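 Masliner-normalised scans of fluorescent anti-GST signal were the basis for scoring. That signal came from GST-tagged yeast transcription factors applied at about 100-200 nM to double-stranded universal all-10-mer Agilent arrays on fresh or once-stripped slides. Each ungapped eight-base word, pooled with its reverse complement, received an E-score from the Universal PBM Analysis Suite.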
row,Sequence,PBM E-score
1,AATACGAG,0.0303
2,AACCTACC,-0.164
3,AACCATCC,-0.0939
4,ACTAAGTC,-0.155
5,CCCGGCCC,-0.394
6,TATAAAGA,0.127
7,ACTATCGC,-0.0879
8,CTTCTTAC,-0.0252
9,AAAGCTGT,0.102
10,GCCAATAA,0.0966
11,CAGCCCAC,-0.191
12,ACTCTCGA,-0.102
13,AGCTAGGG,-0.23
14,ACAGTCCG,-0.197
15,CGTATTAA,0.112
16,ACCCTATG,-0.243
17,GCGGGGCC,-0.122
18,ATTGGGCC,0.111
19,CCCAGCGG,-0.194
20,CGGCATTA,0.3
21,GCATGGCC,-0.164
22,GCCTTCCC,-0.138
23,TCGTACGA,0.146
24,ATATAATC,0.231
25,AACCACGG,-0.066

row,Sequence,PBM E-score
1,CTGGGGGA,-0.311
2,CAATGGGG,-0.0393
3,CATAGTTC,0.0666
4,CGAACACC,-0.134
5,AGGAGGAC,-0.316
6,CCGCTCTA,-0.0361
7,CAGGCTTA,-0.147
8,TCCGTAGA,-0.109
9,TAAACCTA,0.0665
10,AGGTCACT,-0.0496
11,ACGGTAGG,-0.0442
12,AGCGAACC,-0.16
13,CTGGGTAC,-0.146
14,AGTGGAAC,-0.194
15,ACCAGTAC,-0.0199
16,ACTAGGCT,-0.0951
17,CACGCACC,-0.00414
18,AGGCTAGA,-0.259
19,CCTTCTAG,-0.0748
20,CTGTCTGC,-0.171
21,CTCAACCA,-0.00932
22,CGACCCCA,-0.0987
23,ACGGTTGG,-0.122
24,CTCATCAA,0.134
25,CGATAGCA,-0.0491

row,Sequence,PBM E-score
1,ATGATCTA,0.176
2,AAACCGTA,-0.119
3,AATCATCC,0.113
4,ATTCGCTA,-0.0986
5,AGGGCGCC,0.0238
6,CATACGGC,0.321
7,GATATAGA,0.0929
8,AGCGTTGA,-0.0573
9,GACGGTGC,-0.0546
10,GTGGCCAC,0.0191
11,CGATGATC,0.117
12,ATGTCACG,0.396
13,ACTCGCGG,-0.106
14,AGGGAGGC,-0.139
15,AAGACGAG,-0.203
16,GAGGCAAA,0.118
17,ATCGCTCG,-0.112
18,ACTACACT,-0.128
19,ACGATAAC,0.119
20,TTTATAAA,0.359
21,ACTGGAAC,-0.0423
22,AGTCGATG,0.0201
23,AAGCCAGT,-0.315
24,ATGAGGTG,0.174
25,TGGACACA,-0.0689

row,Sequence,PBM E-score
1,GCAGGGTA,-0.0581
2,AATCCCTG,-0.109
3,TTGAGCAA,-0.115
4,GCAGAGAC,-0.168
5,GAGTACGC,-0.123
6,CAGACCAC,-0.0133
7,TACCGAGA,-0.00302
8,AAGCCCCG,-0.196
9,GACTCAGA,-0.154
10,AATTTGAC,0.15
11,ATTATAAA,0.197
12,CCTAGCGA,-0.296
13,CGGTTAAA,-0.0654
14,ACTGCATC,0.182
15,GAGGTTGA,-0.0414
16,CCCTCACA,-0.153
17,ACCATCTC,-0.0673
18,AGTGCGAT,0.1
19,TCTGCCCA,-0.13
20,GGTTTTGA,0.105
21,GGTTCAGA,-0.107
22,AGAGGACC,-0.322
23,CTTTTGGA,0.00491
24,CCGATACC,-0.27
25,TCCAGAGA,-0.117

row,Sequence,PBM E-score
1,TCAATAAA,0.169
2,CTGGACAA,-0.171
3,CAACCCAG,-0.231
4,ACCACCGA,-0.145
5,CGACAAAA,0.163
6,CCTCCTGC,-0.167
7,CGCATTAA,0.169
8,AACCTTGG,0.0431
9,ATTGTTCG,0.236
10,GCACGCCA,-0.0767
11,CAACCGAG,-0.138
12,GCTCGAAA,-0.03
13,GCGGCGCC,0.376
14,TCTCTAAA,-0.0336
15,GACCTCAA,0.195
16,CAGCGAAG,-0.126
17,CCCACCGC,-0.094
18,ATCTCCTG,0.027
19,CTTTTCGA,0.201
20,GTATCGAA,0.131
21,CGAACAAA,0.22
22,TATTCGCA,0.154
23,CCATATGA,0.115
24,ATAGAGGC,-0.0967
25,ATTCAGGA,0.1

row,Sequence,PBM E-score
1,CTTCACGA,-0.183
2,AGTATCGC,-0.0882
3,AAAGAACT,0.114
4,GCATGGTA,-0.00978
5,CAACACCG,-0.0342
6,CTATAGTC,-0.0652
7,ACTTACAA,0.196
8,AAGAGTAA,0.21
9,ATTCCTCG,-0.0625
10,AACCGTAT,-0.216
11,ACTCCCCA,-0.174
12,CCGCCCCA,0.00048
13,AGTGTCTA,-0.0121
14,CGTAATCA,0.427
15,CTTACTCC,-0.11
16,ATGGGTAA,0.0783
17,GTGGCAAC,-0.0356
18,CCCTATGC,-0.245
19,AGAAAGCG,0.0485
20,ACTTCGGA,0.103
21,CCTAAGGA,-0.0635
22,AGGCGACT,-0.103
23,AAATGCCG,0.282
24,CCGAACCA,-0.198
25,TCGGAGCA,-0.239

row,Sequence,PBM E-score
1,AGCCCGCA,-0.193
2,ACCTGAGA,-0.0108
3,CCCTCTAC,-0.296
4,AATGATTC,0.225
5,ACCGACCC,-0.0871
6,ACCGCAGT,-0.0541
7,GAGCCCGA,-0.0446
8,AAAAGGAC,-0.041
9,AACCACTG,0.0638
10,GAGATTGC,-0.217
11,AGCGTAGC,-0.198
12,GAGTATTA,0.131
13,AATAGCGG,-0.112
14,CCTTCGTC,-0.00736
15,CTCCGCCC,-0.249
16,GCAGAGTA,-0.122
17,CAAACGGC,0.204
18,ATTGAAGG,-0.183
19,CCTGTGAC,0.124
20,AAGCTGAC,0.163
21,CCGGCATC,-0.199
22,CGATCTTC,-0.164
